# Laboratory results published in PubChem BioAssay (NCI).
#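 Grown in 96-well plates, cells were treated for 48 hours with each compound at five concentrations. Insufficient inhibition: endpoint recorded as highest concentration tested. At the GI50, growth is halved. TGI is the concentration that stops growth completely.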
# Test system: NCI-H322M lung
# Assay: NCI tumour cell line growth inhibition, 48 h
Compound,GI50 [µM],TGI [µM]
COc1cc2cc(C(=O)N3C[C@@H](CCl)c4c3cc(OC(=O)N(CCC(=O)N3CCN(C)CC3)C3CCCCC3)c3ccccc43)[nH]c2c(OC)c1OC,1.55,6.4
COc1ccc(/C=C/C(=O)c2ccc(OC)c(S(N)(=O)=O)c2)c(C(F)(F)F)c1,2.63,10.4
C[C@H]1[C@H](OC(=O)CCC(=O)N(CCCc2cn(-c3ccc(CN4CCOCC4)cc3)nn2)CCNc2ccnc3cc(Cl)ccc23)O[C@@H]2OC3(C)CC[C@H]4[C@H](C)CC[C@@H]1[C@@]24OO3,6.41,> 11.8
O=C(Cc1ccc2c(c1)CN(C1CCC(=O)NC1=O)C2=O)NCc1cccc2ccccc12 (stereo not given),< 0.01,0.0382
CCCCCCn1c(O)c(N=Nc2nc(-c3cc4ccccc4oc3=O)cs2)c2ccccc21,15.8,29.3
